Assay results published in PubChem BioAssay (Tox21).
“And” between values parts separate entries of the source, which are not always exact repeats. Equal entries are not always repeated. Inconclusive means that the source gave no clear call. Such entries were picked first, then a sample of the others. For some assays here: Where the call is inconclusive, the potency comes from a doubtful curve fit. Some structures have more than one record in an assay (separate samples or runs), and their calls can disagree. The source made the active and inactive calls. Calls follow the shape of the dose curve; as a rule, active = well fitted curve in the direction sought with a large enough effect in the repeat runs; inconclusive = weak or mixed curves; inactive = no such curve, though single readings can be large; an effect the other way counts as inactive or inconclusive.

experiment: A CellTox Green Cytotoxicity Assay to monitor cytotoxicity in HEK293 cells - 16 hour (AID 1224888); settings: CellTox Green fluorescence; series mostly up to 76.8 µM; activity change: at the top concentration; also: nearly all actives have a fitted effect of over 35% in size; as to activity change: % is scaled to controls: 0 for no effect and ±100 for the full control effect
In short: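 Homogeneous no-lysis format: HEK293 cell suspension mixed with CellTox Green reagent, seeded, incubated 5 h at 37 C/5% CO2, then dosed by pintool with compound in DMSO.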
Potency is read from the fitted curve at half-maximal effect; tags tell the direction and shape of the fitted curve.

Row | Structure (SMILES) | Potency | activity change
1 | NC(=O)C(c1ccccc1)(c1ccccc1)[C@@H]1CCN(CCc2ccc3c(c2)CCO3)C1 | active: 21.3 µM | –
2 | COc1cc(Nc2c(C#N)cnc3cc(OCCCN4CCN(C)CC4)c(OC)cc23)c(Cl)cc1Cl | – | inactive: 6.68% [at 35.3 µM, stronger effect = higher value]
3 | O[C@@H](CNC[C@H](O)[C@H]1CCc2cc(F)ccc2O1)[C@@H]1CCc2cc(F)ccc2O1 | active: 26.8 µM | –

experiment: qHTS RealTime-Glo MT Cell Viability Assay in HepG2 cells - 0 hour (AID 1224889); settings: RealTime-Glo luminescence; series mostly up to 76.8 µM; activity change, negative = cytotoxicity: at the top concentration; also: nearly all actives have a fitted effect of over 50% in size
In short: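 Compound treatment began 5 h after plating HepG2 cells (600/well) with NanoLuc luciferase and prosubstrate. Plates stayed at 37 C for 40 h; luminescence was captured at six time points, 0 h through 40 h.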

Row | Structure (SMILES) | Potency
4 | CC1(C)O[C@@H]2C[C@H]3[C@@H]4C[C@H](F)C5=CC(=O)CC[C@]5(C)[C@H]4[C@@H](O)C[C@]3(C)[C@]2(C(=O)CO)O1 | active: 1.23 µM and active: 2.68 µM
5 | COc1cc2ncnc(Nc3ccc(F)c(Cl)c3)c2cc1OCCCN1CCOCC1 | inconclusive: 23.9 µM [cytotoxic, partial curve]
6 | CCC(=O)c1ccc2c(c1)N(CCCN(C)C)c1ccccc1S2 | inconclusive: 19 µM [rising, partial curve]
7 | O=S1(=O)OC(c2ccc(O)cc2)(c2ccc(O)cc2)c2ccccc21 | active: 49 µM and inconclusive: 43.6 µM [cytotoxic, partial curve] and inconclusive: 26.8 µM [cytotoxic, partial curve, poor fit]
8 | CN(C)CC/C=C1\c2ccccc2Sc2ccc(Cl)cc21 | inconclusive: 10.7 µM [rising, partial curve]
9 | COc1ccc(-c2coc3cc(O)cc(O)c3c2=O)cc1 | inconclusive: 55.4 µM [cytotoxic, single point]
10 | COC(=O)C1=C(C)NC(C)=C(C(=O)OCC(C)=O)C1c1ccccc1[N+](=O)[O-] (stereo not given) | inconclusive: 23.9 µM [cytotoxic, single point]
11 | COc1cc(Nc2c(C#N)cnc3cc(OCCCN4CCN(C)CC4)c(OC)cc23)c(Cl)cc1Cl | inconclusive: 26.8 µM [cytotoxic, partial curve, poor fit]
12 | O[C@@H](CNC[C@H](O)[C@H]1CCc2cc(F)ccc2O1)[C@@H]1CCc2cc(F)ccc2O1 | inconclusive: 12 µM [rising, partial curve]

experiment: A CellTox Green Cytotoxicity Assay to monitor cytotoxicity in HepG2 cells - 8 hour (AID 1224890); settings: CellTox Green fluorescence; series mostly up to 76.8 µM; cytotoxicity increase: at the top concentration; also: nearly all actives have a fitted effect of over 45% in size
In short: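 Fluorescent DNA-binding dye, 600 HepG2 cells/well, 5 h preincubation then compound in DMSO; same plates read at 0–40 h, 37 C.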

Row | Structure (SMILES) | Potency
13 | COc1cc2ncnc(Nc3ccc(F)c(Cl)c3)c2cc1OCCCN1CCOCC1 | inconclusive: 23.9 µM [activator, single point]
14 | NS(=O)(=O)c1cc(C(=O)O)c(NCc2ccco2)cc1Cl | inconclusive: 19.6 µM [activator, full curve, poor fit]
15 | CCCCOC(=O)c1ccc(O)cc1 | inconclusive: 69.2 µM [activator, single point]
16 | CC1C2CC(CC2C2CCCC(O)C2)C1(C)C (stereo not given) | active: 43.6 µM
17 | O=C1c2ccccc2C(=O)C1c1nc2ccccc2c(Br)c1O | inconclusive: 54.9 µM [activator, single point]
18 | CN(C)CC/C=C1\c2ccccc2Sc2ccc(Cl)cc21 | inconclusive: 21.3 µM [activator, partial curve]
19 | CN(C)c1ccc(C(=N)c2ccc(N(C)C)cc2)cc1 | inconclusive: 52.9 µM [activator, partial curve, poor fit]
20 | Oc1ccc2c(c1)-c1ccccc1C2 | inconclusive: 43.6 µM [activator, partial curve]
21 | CO[C@@H]1[C@@H](OC)[C@H](C)[C@@](O)(CC(=O)O)O[C@H]1[C@H](C)[C@H]1O[C@@]2(CC[C@@](C)([C@H]3CC[C@@](C)([C@@H]4O[C@@H]([C@H]5O[C@](C)(O)[C@H](C)C[C@@H]5C)C[C@@H]4OC4C[C@H](OC)[C@@H](OC)[C@H](C)O4)O3)O2)C[C@H](O)[C@H]1C (stereo not given in full) | inconclusive: 1.69 µM [activator, partial curve]
22 | CCCCCc1ccc(O)cc1 | inconclusive: 54.9 µM [activator, single point]
23 | O[C@@H](CNC[C@H](O)[C@H]1CCc2cc(F)ccc2O1)[C@@H]1CCc2cc(F)ccc2O1 | active: 23.9 µM

experiment: qHTS assay to identify small molecule antagonists of the estrogen receptor alpha (ER-alpha) signaling pathway using the BG1 cell line in the presence of 0.1 nM 17-beta-estradiol - cell viability counter screen (AID 1259241); settings: VM7Luc4E2 (BG1) viability, CellTiter-Fluor protease, 22 h, 0.1 nM estradiol agonist added; series mostly up to 92.4 µM; activity change, negative = cytotoxicity: at the top concentration; also: nearly all actives have a fitted effect of over 40% in size
In short: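 Cells were plated and left 24 hr, compounds in DMSO were pinned in, 17beta-estradiol was added to 0.1 nM final, and after 22 hr CellTiter-Fluor reagent was added for 30 min before fluorescence was read.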

Row | Structure (SMILES) | Potency
24 | CCC(=O)c1ccc2c(c1)N(CCCN(C)C)c1ccccc1S2 | inconclusive: 11.9 µM [cytotoxic, partial curve, poor fit]
25 | CN(C)c1ccc(C(=N)c2ccc(N(C)C)cc2)cc1 | inconclusive: 27 µM [cytotoxic, partial curve] and active: 18.6 µM
26 | Cc1nccn1-c1ccc(Sc2cccc(C3(C(N)=O)CCOCC3)c2)cc1 | inconclusive: 8.63 µM [cytotoxic, full curve]

experiment: qHTS assay to identify small molecule antagonists of the androgen receptor (AR) signaling pathway using the MDA cell line in the presence of 0.5 nM R1881 - cell viability counter screen (AID 1259242); settings: MDA-kb2 viability, CellTiter-Fluor protease fluorescence, 16 h; series mostly up to 92.4 µM; viability change, negative = cytotoxic: at the top concentration; also: nearly all actives have a fitted effect of over 45% in size; as to viability change, negative = cytotoxic: % is scaled to controls: 0 for no effect and ±100 for the full control effect
In short: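 Human breast carcinoma MDA-kb2 cells, cultured without CO2, receive compounds alongside 0.5 nM (final) R1881 agonist. After 16 hr at 37C, viability is taken as live-cell protease signal.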

Row | Structure (SMILES) | Potency | viability change, negative = cytotoxic
27 | CCN(CC)CCCC(C)Nc1c2ccc(Cl)cc2nc2ccc(OC)cc12 (stereo not given) | inconclusive: 5.96 µM [cytotoxic, partial curve] | –
28 | O=S1(=O)OC(c2ccc(O)cc2)(c2ccc(O)cc2)c2ccccc21 | active: 27.3 µM and active: 19.3 µM and active: 10.6 µM | –
29 | CC/C=C\CCCCCO | – | inactive: 7.39%
30 | O=C1c2ccccc2C(=O)C1c1nc2ccccc2c(Br)c1O | inconclusive: 48.6 µM [cytotoxic, partial curve, poor fit] | –
31 | CN(C)CC/C=C1\c2ccccc2Sc2ccc(Cl)cc21 | inconclusive: 26.6 µM [cytotoxic] | –
32 | COc1ccc(-c2coc3cc(O)cc(O)c3c2=O)cc1 | active: 54.9 µM | –
33 | Cc1nccn1-c1ccc(Sc2cccc(C3(C(N)=O)CCOCC3)c2)cc1 | inconclusive: 12.2 µM [cytotoxic, full curve] | –
34 | CO[C@H]1C=CO[C@@]2(C)Oc3c(C)c(O)c4c(O)c(c5c(c4c3C2=O)=NC2(CCN(CC(C)C)CC2)N=5)NC(=O)/C(C)=C\C=C/[C@H](C)[C@H](O)[C@@H](C)[C@@H](O)[C@@H](C)[C@H](OC(C)=O)[C@@H]1C | inconclusive: 59.8 µM [cytotoxic, partial curve] | –
35 | O[C@@H](CNC[C@H](O)[C@H]1CCc2cc(F)ccc2O1)[C@@H]1CCc2cc(F)ccc2O1 | inconclusive: 33.5 µM [cytotoxic, single point] | –
